The entries are a selection whose mix differs from that of the whole data set. For some assays here: At the low end of the ranking, values are background and their order means little. Some of the results follow. For some assays here: Construct or isoform of the protein are uncertain.
How the values were obtained:
Assay in all cases: universal protein binding microarray (PBM)
Conditions in all cases: transcription factors of Arabidopsis thaliana; high values mean tight binding; most listed sequences are background and not binding sites; double strand, one strand shown
GST-NTL6(1-168) = GST-NTL6(1-168) (UniProt Q9SCK6)
GST-NST2(1-184) = molecular target: T1, GST-NST2(1-184) (UniProt Q9M274)
T1 sequence: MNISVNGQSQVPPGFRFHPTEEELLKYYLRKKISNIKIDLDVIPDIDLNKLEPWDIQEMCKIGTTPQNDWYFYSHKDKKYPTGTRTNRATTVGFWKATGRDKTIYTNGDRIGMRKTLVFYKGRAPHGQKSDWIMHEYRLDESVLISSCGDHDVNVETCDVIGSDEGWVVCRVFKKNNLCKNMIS

GST-NTL8 NAC domain = molecular target: T2, GST-NTL8 NAC domain (UniProt Q9XIN7)
T2 sequence: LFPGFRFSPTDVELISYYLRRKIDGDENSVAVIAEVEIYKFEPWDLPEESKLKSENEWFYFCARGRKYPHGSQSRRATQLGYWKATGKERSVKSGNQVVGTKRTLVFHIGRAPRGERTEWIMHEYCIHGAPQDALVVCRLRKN

GST-VND7 NAC domain = molecular target: T3, GST-VND7 NAC domain (UniProt Q9C8W9)
T3 sequence: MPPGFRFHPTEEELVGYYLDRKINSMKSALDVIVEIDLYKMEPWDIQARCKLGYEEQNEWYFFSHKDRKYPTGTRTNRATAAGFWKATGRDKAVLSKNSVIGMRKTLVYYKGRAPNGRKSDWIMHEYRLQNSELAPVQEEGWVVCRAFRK

[1] = molecular target: T4, GST-VOZ2 (Arabidopsis thaliana) (UniProt Q9SLB9)
T4 sequence: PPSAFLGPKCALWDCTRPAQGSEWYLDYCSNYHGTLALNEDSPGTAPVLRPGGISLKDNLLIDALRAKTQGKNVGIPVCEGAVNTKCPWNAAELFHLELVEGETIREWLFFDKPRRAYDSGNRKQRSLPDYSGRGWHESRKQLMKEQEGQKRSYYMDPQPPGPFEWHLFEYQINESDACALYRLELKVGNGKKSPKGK

GST-NAP(1-166) = molecular target: T5, GST-NAP(1-166) (UniProt O49255)
T5 sequence: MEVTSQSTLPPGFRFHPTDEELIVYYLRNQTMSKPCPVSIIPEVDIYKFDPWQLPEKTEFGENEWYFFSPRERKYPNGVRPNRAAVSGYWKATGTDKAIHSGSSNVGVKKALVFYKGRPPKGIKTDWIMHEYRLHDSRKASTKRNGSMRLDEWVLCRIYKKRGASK

GST-WRKY1(266-371) = GST-WRKY1(266-371) (UniProt Q9SI37)
[2] = molecular target: T6, GST-ANAC092(1-285) full length (UniProt Q9FKA0)
T6 sequence: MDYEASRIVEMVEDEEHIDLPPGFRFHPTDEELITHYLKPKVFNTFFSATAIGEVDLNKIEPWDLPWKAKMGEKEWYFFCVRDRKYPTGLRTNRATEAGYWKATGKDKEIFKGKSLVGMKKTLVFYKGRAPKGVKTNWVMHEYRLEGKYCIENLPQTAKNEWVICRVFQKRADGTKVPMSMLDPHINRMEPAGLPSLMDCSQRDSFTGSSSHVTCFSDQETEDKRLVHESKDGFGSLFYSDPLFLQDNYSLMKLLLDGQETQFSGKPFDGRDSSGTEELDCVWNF

GST-ANAC019 NAC domain = molecular target: T7, GST-ANAC019 NAC domain (UniProt Q9C932)
T7 sequence: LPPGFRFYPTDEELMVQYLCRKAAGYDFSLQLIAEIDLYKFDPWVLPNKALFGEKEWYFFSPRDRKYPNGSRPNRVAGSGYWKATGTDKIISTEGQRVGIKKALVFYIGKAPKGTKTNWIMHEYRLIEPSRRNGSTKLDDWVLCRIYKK

GST-ANAC055(1-171) = molecular target: T8, GST-ANAC055(1-171) (UniProt Q9LDY8)
T8 sequence: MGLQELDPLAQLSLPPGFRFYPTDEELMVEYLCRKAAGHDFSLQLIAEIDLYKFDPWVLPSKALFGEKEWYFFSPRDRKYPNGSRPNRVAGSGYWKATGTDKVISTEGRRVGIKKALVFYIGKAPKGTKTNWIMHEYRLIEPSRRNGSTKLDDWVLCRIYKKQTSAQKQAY

GST-ATAF1 NAC domain = molecular target: T9, GST-ATAF1 NAC domain (UniProt Q39013)
T9 sequence: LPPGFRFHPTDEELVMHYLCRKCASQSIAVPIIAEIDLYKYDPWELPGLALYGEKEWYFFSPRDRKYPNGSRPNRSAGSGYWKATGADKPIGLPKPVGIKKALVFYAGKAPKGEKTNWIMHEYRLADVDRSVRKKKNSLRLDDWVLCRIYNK

GST-ANAC092(1-176) = molecular target: T10, GST-ANAC092(1-176) (UniProt Q9FKA0)
T10 sequence: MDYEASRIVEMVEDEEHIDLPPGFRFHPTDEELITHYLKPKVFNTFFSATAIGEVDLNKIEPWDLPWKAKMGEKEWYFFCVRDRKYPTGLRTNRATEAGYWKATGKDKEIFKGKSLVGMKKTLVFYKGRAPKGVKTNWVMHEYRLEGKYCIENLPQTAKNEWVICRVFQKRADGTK

Row | Sequence | binding signal (GST-NTL6(1-168)) | binding signal (GST-NST2(1-184)) | binding signal (GST-NTL8 NAC domain) | binding signal (GST-VND7 NAC domain) | binding signal [1] | binding signal (GST-NAP(1-166)) | binding signal (GST-WRKY1(266-371)) | binding signal [2] | binding signal (GST-ANAC019 NAC domain) | binding signal (GST-ANAC055(1-171)) | binding signal (GST-ATAF1 NAC domain) | binding signal (GST-ANAC092(1-176))
1 | TTACGTAA | 0.171 E-score | 0.433 E-score | 0.411 E-score | 0.481 E-score | 0.0304 E-score | – | – | – | – | – | – | –
2 | GTTTCCTA | – | 0.169 E-score | 0.404 E-score | 0.0417 E-score | 0.0891 E-score | 0.118 E-score | 0.0369 E-score | – | – | – | – | –
3 | ACGCTACT | 0.0316 E-score | – | 0.0894 E-score | 0.00226 E-score | 0.215 E-score | – | – | 0.425 E-score | – | – | – | –
4 | GAAAGGAA | 0.32 E-score | – | – | 0.231 E-score | 0.0952 E-score | -0.02 E-score | – | – | 0.134 E-score | 0.168 E-score | – | –
5 | GCGTGTCA | -0.0922 E-score | 0.0663 E-score | -0.12 E-score | 0.189 E-score | 0.064 E-score | – | – | – | – | – | – | –
6 | AAGTAATA | 0.428 E-score | – | 0.211 E-score | 0.136 E-score | 0.0754 E-score | 0.14 E-score | – | 0.327 E-score | 0.0278 E-score | 0.215 E-score | 0.207 E-score | –
7 | AACGTGTA | – | 0.265 E-score | -0.0491 E-score | 0.0615 E-score | 0.0622 E-score | – | -0.155 E-score | – | – | – | – | –
8 | CTTCCTTA | – | – | 0.223 E-score | -0.0641 E-score | -0.0764 E-score | -0.0468 E-score | – | – | 0.0721 E-score | 0.0252 E-score | 0.0435 E-score | –
9 | GTACGTAA | 0.174 E-score | 0.276 E-score | 0.167 E-score | 0.44 E-score | 0.145 E-score | – | – | 0.441 E-score | – | 0.42 E-score | – | –
10 | CTTGACTA | -0.0211 E-score | – | 0.0949 E-score | 0.0272 E-score | 0.0134 E-score | -0.0927 E-score | – | 0.0162 E-score | – | – | – | -0.0302 E-score
11 | GTCGCGTA | 0.0763 E-score | 0.109 E-score | -0.0551 E-score | 0.233 E-score | 0.114 E-score | 0.171 E-score | – | – | -0.0345 E-score | 0.0476 E-score | 0.195 E-score | –
12 | ATGCGTAC | – | – | -0.0901 E-score | – | 0.0899 E-score | – | 0.0545 E-score | – | – | 0.17 E-score | – | 0.362 E-score
13 | CTACGCAA | -0.0569 E-score | – | – | – | 0.146 E-score | – | 0.0118 E-score | – | – | – | – | –
14 | AGATTGAC | – | – | -0.0806 E-score | – | 0.0393 E-score | -0.0172 E-score | 0.457 E-score | – | -0.158 E-score | – | 0.0846 E-score | 0.135 E-score
15 | ACGTACGC | -0.0284 E-score | – | -0.00986 E-score | – | 0.0607 E-score | 0.274 E-score | -0.0607 E-score | – | – | – | 0.26 E-score | 0.212 E-score
16 | AGCGTGTA | -0.0758 E-score | – | -0.0901 E-score | – | -0.0449 E-score | 0.198 E-score | -0.055 E-score | 0.436 E-score | 0.0634 E-score | – | – | 0.418 E-score
17 | ATACGCAA | 0.0867 E-score | 0.406 E-score | – | – | 0.169 E-score | 0.459 E-score | 0.027 E-score | – | – | 0.397 E-score | – | 0.485 E-score
18 | CAAGTTAC | 0.256 E-score | – | – | – | 0.00292 E-score | 0.144 E-score | -0.0191 E-score | – | 0.163 E-score | – | – | 0.371 E-score
19 | CAAGCAAC | 0.239 E-score | – | – | – | -0.041 E-score | -0.0691 E-score | -0.0146 E-score | – | 0.1 E-score | – | 0.0251 E-score | 0.426 E-score
20 | AGAGGAAA | 0.126 E-score | -0.0502 E-score | – | – | 0.0556 E-score | 0.0393 E-score | 0.0337 E-score | – | -0.0124 E-score | 0.0107 E-score | – | 0.115 E-score
21 | AATTGCGT | 0.0568 E-score | 0.294 E-score | 0.0923 E-score | – | 0.25 E-score | 0.432 E-score | -0.0635 E-score | 0.46 E-score | 0.394 E-score | – | – | 0.451 E-score
22 | ACAAGTTA | 0.022 E-score | – | 0.0244 E-score | – | 0.0301 E-score | -0.0978 E-score | -0.065 E-score | – | 0.00787 E-score | 0.106 E-score | 0.162 E-score | –
23 | TCGGTCAA | – | – | 0.0239 E-score | -0.0861 E-score | 0.136 E-score | – | – | 0.0439 E-score | -0.00981 E-score | – | -0.0221 E-score | –
24 | TTAAGCAA | 0.471 E-score | 0.334 E-score | – | – | -0.0869 E-score | -0.0933 E-score | -0.154 E-score | – | 0.0483 E-score | 0.133 E-score | – | –
25 | TCACGTAA | 0.0398 E-score | – | – | – | 0.124 E-score | 0.405 E-score | 0.0388 E-score | – | 0.47 E-score | – | – | 0.443 E-score
26 | ATTACGTA | – | – | – | 0.458 E-score | 0.165 E-score | – | – | 0.449 E-score | – | – | – | –
27 | AAACACGC | -0.00187 E-score | – | -0.00318 E-score | – | 0.155 E-score | – | -0.04 E-score | – | 0.261 E-score | 0.262 E-score | 0.233 E-score | 0.415 E-score

From article PMC4081100
